Numbering of substitutions follows the chain as printed; changes in the protein carry UniProt numbers. The list shows a part of the results.

T1: RBFOX1 RRM RbFoxmut (Fox-RRM*) (Homo sapiens, UniProt Q9NWB1 109-208, R118D;E147R;N151S;E152T)
T1 sequence: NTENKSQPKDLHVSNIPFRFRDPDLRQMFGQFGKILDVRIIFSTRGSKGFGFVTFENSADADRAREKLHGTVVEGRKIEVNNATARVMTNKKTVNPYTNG

B1: UCUAUUG (DNA:RNA)
RNA: GGGAGACCGGAAUUCAGAUUGUCCUCUAUUGUUAAAUCCCGUCGUAGCCACCA
DNA 1: CAATCTGAATTCCGGTCTCCC
DNA 2: TGGTGGCTACGACGGGATT
B2: GUCUCUG (DNA:RNA)
RNA: B1 RNA with U25G, C26U, U27C, A28U, U29C
DNA 1: CAATCTGAATTCCGGTCTCCC
DNA 2: TGGTGGCTACGACGGGATT
B3: CGAUUCC (DNA:RNA)
RNA: B1 RNA with U25C, C26G, U27A, A28U, U30C, G31C
DNA 1: CAATCTGAATTCCGGTCTCCC
DNA 2: TGGTGGCTACGACGGGATT
B4: UCCGGCU (DNA:RNA)
RNA: B1 RNA with U27C, A28G, U29G, U30C, G31U
DNA 1: CAATCTGAATTCCGGTCTCCC
DNA 2: TGGTGGCTACGACGGGATT
B5: GGUGAGU (DNA:RNA)
RNA: B1 RNA with U25G, C26G, A28G, U29A, U30G, G31U
DNA 1: CAATCTGAATTCCGGTCTCCC
DNA 2: TGGTGGCTACGACGGGATT
B6: AUCUCAC (DNA:RNA)
RNA: GGGAGACCGGAAUUCAGAUUGUCCAUCUCACUUAAAUCCCGUCGUAGCCACCA
DNA 1: CAATCTGAATTCCGGTCTCCC
DNA 2: TGGTGGCTACGACGGGATT
B7: GCUCUAC (DNA:RNA)
RNA: B1 RNA with U25G, A28C, U30A, G31C
DNA 1: CAATCTGAATTCCGGTCTCCC
DNA 2: TGGTGGCTACGACGGGATT
B8: UGAGGGG (DNA:RNA)
RNA: B1 RNA with C26G, U27A, A28G, U29G, U30G
DNA 1: CAATCTGAATTCCGGTCTCCC
DNA 2: TGGTGGCTACGACGGGATT
B9: UUGCGGC (DNA:RNA)
RNA: B6 RNA with A25U, C27G, U28C, C29G, A30G
DNA 1: CAATCTGAATTCCGGTCTCCC
DNA 2: TGGTGGCTACGACGGGATT
B10: GAGGGAA (DNA:RNA)
RNA: B6 RNA with A25G, U26A, C27G, U28G, C29G, C31A
DNA 1: CAATCTGAATTCCGGTCTCCC
DNA 2: TGGTGGCTACGACGGGATT
B11: CAAGUGU (DNA:RNA)
RNA: B1 RNA with U25C, C26A, U27A, A28G, U30G, G31U
DNA 1: CAATCTGAATTCCGGTCTCCC
DNA 2: TGGTGGCTACGACGGGATT
B12: UUUAGCC (DNA:RNA)
RNA: B1 RNA with C26U, U29G, U30C, G31C
DNA 1: CAATCTGAATTCCGGTCTCCC
DNA 2: TGGTGGCTACGACGGGATT
B13: GGGGCGG (DNA:RNA)
RNA: B6 RNA with A25G, U26G, C27G, U28G, A30G, C31G
DNA 1: CAATCTGAATTCCGGTCTCCC
DNA 2: TGGTGGCTACGACGGGATT
B14: UAGUACG (DNA:RNA)
RNA: B1 RNA with C26A, U27G, A28U, U29A, U30C
DNA 1: CAATCTGAATTCCGGTCTCCC
DNA 2: TGGTGGCTACGACGGGATT
B15: UAUGGGG (DNA:RNA)
RNA: B1 RNA with C26A, A28G, U29G, U30G
DNA 1: CAATCTGAATTCCGGTCTCCC
DNA 2: TGGTGGCTACGACGGGATT
B16: AGACCGC (DNA:RNA)
RNA: B6 RNA with U26G, C27A, U28C, A30G
DNA 1: CAATCTGAATTCCGGTCTCCC
DNA 2: TGGTGGCTACGACGGGATT
B17: UGACGAG (DNA:RNA)
RNA: B1 RNA with C26G, U27A, A28C, U29G, U30A
DNA 1: CAATCTGAATTCCGGTCTCCC
DNA 2: TGGTGGCTACGACGGGATT
B18: GCUCGAG (DNA:RNA)
RNA: B1 RNA with U25G, A28C, U29G, U30A
DNA 1: CAATCTGAATTCCGGTCTCCC
DNA 2: TGGTGGCTACGACGGGATT
B19: GCGCUCG (DNA:RNA)
RNA: B1 RNA with U25G, U27G, A28C, U30C
DNA 1: CAATCTGAATTCCGGTCTCCC
DNA 2: TGGTGGCTACGACGGGATT
B20: GCUGUGG (DNA:RNA)
RNA: B1 RNA with U25G, A28G, U30G
DNA 1: CAATCTGAATTCCGGTCTCCC
DNA 2: TGGTGGCTACGACGGGATT

The target in this assay is T1, RBFOX1 RRM RbFoxmut (Fox-RRM*). Put plainly: EMSA; HiTS-Eq, 1 nM pool, 10 min; buffer printed only for the single-RNA assays: 10 mM Tris pH 7.5, 150 mM NaCl, 3.4 mM EDTA, 0.001% NP-40, 30 C. Conditions: tags: His6 N-terminal (pET28a); label: 5' 32P. In outline: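 Purified RbFox RRM (wild type or mutant) was equilibrated for 10 min in 50 µL with 1 nM of a 5′-radiolabelled pool of RNA with 7 randomized nucleotides, its flanks annealed to DNA oligonucleotides, across increasing protein concentrations. Free RNA was separated by 8% native PAGE, excised, reverse-transcribed, PCR-barcoded and sequenced on an Illumina HiSeq 2500. Relative association constants came from read-count changes of each variant against the control reaction, normalised to the cognate motif.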
Background: A gel shift assay detects complexes by their altered migration in electrophoresis.
With B1, the binding signal was 0.125 KA relative to UGCAUGU.
For B2 the value was 0.124 KA relative to UGCAUGU; for B3, 0.0745 KA relative to UGCAUGU; for B4, 0.0755 KA relative to UGCAUGU.
The result for B5 reads 0.101 KA relative to UGCAUGU; that for B6, 0.113 KA relative to UGCAUGU; that for B7, 0.0785 KA relative to UGCAUGU.
For B8 the value was 0.0497 KA relative to UGCAUGU; for B9, 0.0877 KA relative to UGCAUGU.
B10: the binding signal is 0.11 KA relative to UGCAUGU.
In the case of B11, the binding signal is 0.128 KA relative to UGCAUGU.
Consider B12, for which the binding signal is 0.128 KA relative to UGCAUGU.
The result for B13 reads 0.104 KA relative to UGCAUGU; that for B14, 0.122 KA relative to UGCAUGU; that for B15, 0.079 KA relative to UGCAUGU.
For B16 the value was 0.0771 KA relative to UGCAUGU; for B17, 0.0874 KA relative to UGCAUGU.
For B18 the value was 0.181 KA relative to UGCAUGU; for B19, 0.136 KA relative to UGCAUGU.
Take B20: the binding signal was 0.11 KA relative to UGCAUGU.

(Values after article PMC9911399, “Two distinct binding modes provide the RNA-binding protein RbFox with extraordinary sequence specificity”.)
